Where “and” joins values, the source holds several entries; their conditions need not be identical. Equal entries are not always repeated. Inconclusive results, whose numbers are uncertain, are shown with a selection of clear calls. Potencies beside an inconclusive call are fits to weak or partial responses and may not hold up. Calls of active or inactive are those of the source. Calls follow the shape of the dose curve; as a rule, active = well fitted curve in the direction sought with a large enough effect; inconclusive = small, poorly fitted or top-dose-only effect, or another doubt; inactive = no such curve, though single readings can be large; an effect the other way counts as inactive or inconclusive.
Experiments:
[1] = P-glycoprotein substrates identified in KB-8-5-11 adenocarcinoma cell line, qHTS therapeutic library screen (AID 1346987); also: nearly all actives have a fitted effect of over 65% in size
Summary of the method: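 KB-8-5-11, a colchicine-selected P-gp-overexpressing KB-3-1 subline, was grown without colchicine for the assay. Cells were seeded at 500 cells/well, dosed in concentration-response and incubated 72 h at 37 degree C, 5% CO2. Viability was read by CellTiter-Glo luminescence.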

CRL-7250 = normal cell line; assay: Cytotoxic Profiling of Annotated Libraries Using Quantitative High-Throughput Screening (AID 1296008); conditions: Five cell lines viability, CellTiter-Glo ATP luminescence, 48-72 h; max response: hits give low values; also: nearly all actives have a fitted effect of over 60% in size; as to max response: % is scaled to controls: 0 for no effect and ±100 for the full control effect
Summary of the method: (§1)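 Compounds were pin-transferred onto cells and incubated 48 or 72 hr at 37 degree Celsius, 95% humidity. CellTiter-Glo was added, plates sat 10 min at room temperature, then ATP-coupled luminescence was imaged as the viability read-out.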

HaCat = assay: as above; conditions: Five cell lines viability, CellTiter-Glo ATP luminescence, 48-72 h; max response: hits give low values
Summary of the method: as §1

KB-3-1 = assay: as above; conditions: Five cell lines viability, CellTiter-Glo ATP luminescence, 48-72 h; max response: hits give low values
Summary of the method: as §1

NIH3T3 = assay: as above; conditions: Five cell lines viability, CellTiter-Glo ATP luminescence, 48-72 h; max response: hits give low values
Summary of the method: as §1

CASKI = assay: Primary qHTS to identify gynecologic anti-cancer compounds using libraries of approved drugs and bioactive compounds (AID 1345084); conditions: Gynecologic cancer cell panel viability, ATPlite luminescence, 48 h; series mostly up to 57.5 µM; also: nearly all actives have a fitted effect of over 55% in size; as to activity change, negative = cytotoxicity: % is scaled to controls: 0 for no effect and ±100 for the full control effect
Summary of the method: (§2)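 Five-concentration response, 48 h; readout is ATP-driven luciferase luminescence.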

Es-2 = assay: as above; conditions: Gynecologic cancer cell panel viability, ATPlite luminescence, 48 h; series mostly up to 57.5 µM
Summary of the method: as §2

HeLa = assay: as above; conditions: Gynecologic cancer cell panel viability, ATPlite luminescence, 48 h; activity change, negative = cytotoxicity: at 57.5 µM (top of the series)
Summary of the method: as §2

Hek293T = assay: as above; conditions: Gynecologic cancer cell panel viability, ATPlite luminescence, 48 h, control line for the selectivity index; activity change, negative = cytotoxicity: at 57.5 µM (top of the series) unless noted
Summary of the method: as §2

JEG-3 = assay: as above; conditions: Gynecologic cancer cell panel viability, ATPlite luminescence, 48 h; series mostly up to 57.5 µM
Summary of the method: as §2

PA-1 = assay: as above; conditions: Gynecologic cancer cell panel viability, ATPlite luminescence, 48 h; series mostly up to 57.5 µM
Summary of the method: as §2

SKOV3 = assay: as above; conditions: Gynecologic cancer cell panel viability, ATPlite luminescence, 48 h; series mostly up to 57.5 µM
Summary of the method: as §2

Tov-21-G = assay: as above; conditions: Gynecologic cancer cell panel viability, ATPlite luminescence, 48 h; activity change, negative = cytotoxicity: at 57.5 µM (top of the series) unless noted
Summary of the method: as §2

[2] = test system: Zika virus NS2B-NS3 protease (unlinked complex); assay: Primary screen GU Rhodamine qHTS for Zika virus inhibitors: Unlinked NS2B-NS3 protease assay (AID 1347159); also: nearly all actives have a fitted effect of over 60% in size
Summary of the method: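 Noncovalent NS2B hydrophilic domain/NS3 protease complex (25 nM final) in 10 mM Tris-HCl pH 8.0, 0.01% Tween 20, preincubated 15 min with compounds (up to 114 microM), then 1.5 microM Rhodamine110 substrate. Fluorescence change over 15 min fitted to 4-parameter Hill.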

C33A = assay: Primary qHTS to identify gynecologic anti-cancer compounds using libraries of approved drugs and bioactive compounds (AID 1345084); conditions: Gynecologic cancer cell panel viability, ATPlite luminescence, 48 h; series mostly up to 57.5 µM; also: nearly all actives have a fitted effect of over 55% in size; as to activity change, negative = cytotoxicity: % is scaled to controls: 0 for no effect and ±100 for the full control effect
Summary of the method: as §2

CAOV3 = assay: as above; conditions: Gynecologic cancer cell panel viability, ATPlite luminescence, 48 h; activity change, negative = cytotoxicity: at 57.5 µM (top of the series)
Summary of the method: as §2

OV90 = assay: as above; conditions: Gynecologic cancer cell panel viability, ATPlite luminescence, 48 h; series mostly up to 57.5 µM
Summary of the method: as §2

Tov112D = assay: as above; conditions: Gynecologic cancer cell panel viability, ATPlite luminescence, 48 h; series mostly up to 57.5 µM
Summary of the method: as §2

[3] = Primary qHTS for inhibitors of nuclear receptor binding SET domain protein 2 (NSD2) in an isogenic RCH-ACV NSD2 p.E1099K mutant (9B) (AID 1645876); also: nearly all actives have a fitted effect of over 70% in size
[4] = Primary qHTS for inhibitors of nuclear receptor binding SET domain protein 2 (NSD2) in an RCH-ACV wild type WT cells (2C) (AID 1645877); conditions: activity change, negative = cell killing: at 44.9 µM (top of the series) unless noted; also: nearly all actives have a fitted effect of over 70% in size
Potency is read from the fitted curve at half-maximal effect; tags tell the direction and shape of the fitted curve.

COC(=O)Nc1nc2ccc(C(=O)c3ccc(F)cc3)cc2[nH]1
Potency [1]: active: 418 nM and active: 1.03 µM | Potency (CRL-7250): inconclusive: 1.32 µM [inhibitor, full curve] and inconclusive: 5.17 µM [inhibitor, full curve] | Potency (HaCat): inconclusive: 16.6 µM [inhibitor, partial curve] | Potency (KB-3-1): active: 833 nM and active: 1.46 µM | Potency (NIH3T3): inconclusive: 833 nM [inhibitor, full curve] and inconclusive: 1.84 µM [inhibitor, full curve] | Potency (CASKI): inconclusive: 3.55 µM [cytotoxic, full curve] | Potency (Es-2): active: 8.91 µM | Potency (HeLa): active: 3.98 µM | Potency (Hek293T): inconclusive: 2.24 µM [cytotoxic, full curve] | Potency (JEG-3): inconclusive: 3.16 µM [cytotoxic, full curve] | Potency (PA-1): active: 2 µM | Potency (SKOV3): inconclusive: 1.12 µM [cytotoxic, full curve, poor fit] | Potency (Tov-21-G): inconclusive: 7.94 µM [cytotoxic, full curve]

COC1CC/C=C(\C)C(=O)Nc2cc(O)cc(c2)CC(C)CC(OC)C(O)C(C)/C=C(\C)C1OC(N)=O (configuration not stated)
Potency [2]: inactive | Potency (CRL-7250): active: 3.17 µM | Potency (HaCat): active: 7.09 µM | Potency (KB-3-1): inconclusive: 1.59 µM [inhibitor, full curve] | Potency (NIH3T3): inconclusive: 14.2 µM [inhibitor, single point] | Potency (C33A): inconclusive: 8.91 µM [cytotoxic, partial curve, poor fit] | Potency (CAOV3): inconclusive: 12.6 µM [cytotoxic, single point] | Potency (CASKI): inconclusive: 8.91 µM [cytotoxic, single point] | Potency (Hek293T): inconclusive: 14.1 µM [cytotoxic, single point] | Potency (JEG-3): inconclusive: 3.98 µM [cytotoxic, partial curve] | Potency (OV90): active: 8.91 µM | Potency (PA-1): inconclusive: 2.51 µM [cytotoxic, full curve, poor fit] | Potency (SKOV3): inconclusive: 17.8 µM [cytotoxic, single point] | Potency (Tov-21-G): active: 3.98 µM | Potency (Tov112D): inconclusive: 17.8 µM [cytotoxic, single point]

C[C@@H]1CN(c2c(F)c(N)c3c(=O)c(C(=O)O)cn(C4CC4)c3c2F)C[C@H](C)N1
Potency [3]: inconclusive: 14.6 µM [inhibitor, single point] | Potency [4]: inconclusive: 14.6 µM [inhibitor, single point] | max response (CRL-7250): inactive: -4.39% | outcome (CRL-7250): inactive | Potency (PA-1): inactive

CN1CCN(c2c(F)cc3c(=O)c(C(=O)O)cn4c3c2OCN4C)CC1
Potency [3]: inconclusive: 14.6 µM [inhibitor, single point] | Potency [4]: inconclusive: 13 µM [inhibitor, single point] | max response (CRL-7250): inactive: -0.174% | outcome (CRL-7250): inactive | Potency (JEG-3): inactive | Potency (OV90): inactive

CCN(CC)c1ccc2c(O)c(C=Nc3ccc(CC(=O)O)c(-c4c5c(nc6ccccc46)CCC(C(=O)NN)C5)c3)c(=O)oc2c1 (configuration not stated)
Potency [1]: inconclusive: 23.1 µM [inhibitor, single point] | Potency [2]: inconclusive: 28.2 µM [inhibitor, single point] | Potency [4]: active: 4.59 µM | Potency (CRL-7250): inconclusive: 20.6 µM [inhibitor, single point] | Potency (HaCat): inconclusive: 14.6 µM [inhibitor, partial curve, poor fit] | Potency (KB-3-1): active: 5.8 µM | Potency (NIH3T3): inconclusive: 29.1 µM [inhibitor, single point] | Potency (C33A): inconclusive: 39.8 µM [cytotoxic, single point] | Potency (CAOV3): inconclusive: 39.8 µM [cytotoxic, single point] | Potency (CASKI): inconclusive: 35.5 µM [cytotoxic, single point] | Potency (Es-2): inconclusive: 39.8 µM [cytotoxic, single point] | Potency (HeLa): inconclusive: 31.6 µM [cytotoxic, single point] | Potency (Hek293T): inconclusive: 28.2 µM [cytotoxic, single point] | Potency (JEG-3): inconclusive: 39.8 µM [cytotoxic, single point] | Potency (OV90): inconclusive: 31.6 µM [cytotoxic, single point] | Potency (PA-1): inconclusive: 39.8 µM [cytotoxic, single point] | Potency (SKOV3): inconclusive: 39.8 µM [cytotoxic, single point] | Potency (Tov-21-G): inconclusive: 28.2 µM [cytotoxic, single point]
